In article PMC4160245:
No constants are given. Whether binding was seen depends on the method and setting. For part of these data: Binding seen in cells or lysates may run through a third protein. Some entries that bind do so weakly or less than the wild type. For part of these data: Sequences can lack the tags named with a protein. Values belong to the binder of their own block, whether it stands above or below them.

How the values were obtained:
[1] = target: T1, sensor domain of CpxA (CpxA-SD), BACTH hybrid (E. coli K12 (MG1655)) (UniProt P0AE82); experiment: two-hybrid; BACTH in cyclase-deficient E. coli BTH101; T25 and T18 fragments of B. pertussis adenylate cyclase fused to the N- or C-terminal ends; MacConkey-lactose plates 24 h at 30 °C and β-galactosidase activity in liquid cultures; the positive control (zip) is 100%, the negative control is the empty …
T1 sequence: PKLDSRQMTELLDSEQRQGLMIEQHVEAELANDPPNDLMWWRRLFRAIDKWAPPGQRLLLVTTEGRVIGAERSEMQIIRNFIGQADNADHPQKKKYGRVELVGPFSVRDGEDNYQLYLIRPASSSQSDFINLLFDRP

[2] = target: T2, CpxA-Strep (full-length CpxA sensor kinase with a C-terminal Strep-tag) (E. coli K12 (MG1655)) (UniProt P0AE82); experiment: cross-linking + pull-down; mSPINE as a2, misfolded PapE co-expressed from pKT02E; elution fractions concentrated more strongly than samples without PapE
T2 sequence: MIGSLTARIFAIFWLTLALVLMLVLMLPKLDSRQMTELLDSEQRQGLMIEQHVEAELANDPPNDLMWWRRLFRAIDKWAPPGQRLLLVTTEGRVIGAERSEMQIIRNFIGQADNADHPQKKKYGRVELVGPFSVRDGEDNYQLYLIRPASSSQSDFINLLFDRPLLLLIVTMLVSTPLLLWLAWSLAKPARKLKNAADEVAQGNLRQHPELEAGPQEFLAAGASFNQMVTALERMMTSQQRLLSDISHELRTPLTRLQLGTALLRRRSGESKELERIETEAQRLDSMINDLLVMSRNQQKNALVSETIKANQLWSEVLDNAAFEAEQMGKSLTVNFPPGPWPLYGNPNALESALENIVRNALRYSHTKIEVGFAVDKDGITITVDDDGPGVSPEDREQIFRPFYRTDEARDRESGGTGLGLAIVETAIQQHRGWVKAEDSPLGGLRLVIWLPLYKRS

[3] = target: signal peptide-free CpxP, BACTH hybrid (E. coli K12 (MG1655)) (UniProt P0AE85); experiment: two-hybrid; BACTH in cyclase-deficient E. coli BTH101; T25 and T18 fragments of B. pertussis adenylate cyclase fused to the N- or C-terminal ends; MacConkey-lactose plates 24 h at 30 °C and β-galactosidase activity in liquid cultures; the positive control (zip) is 100%, the negative control is the empty …
[4] = target: T2, CpxA-Strep (full-length CpxA sensor kinase with a C-terminal Strep-tag) (E. coli K12 (MG1655)); experiment: pull-down; mSPINE procedure without formaldehyde treatment (control): CpxA-Strep purified on Strep-Tactin from DDM-solubilised membranes of E. coli TG1; immunoblot
[5] = target: T2, CpxA-Strep (full-length CpxA sensor kinase with a C-terminal Strep-tag) (E. coli K12 (MG1655)); experiment: cross-linking + pull-down; mSPINE: E. coli TG1 cells treated with 0.6% formaldehyde for 20 min at 37 °C; membranes solubilised with 2% DDM; CpxA-Strep purified on Strep-Tactin; cross-links cleaved at 95 °C; immunoblot. Cells in standard LB (pH 7.0, 150 mM NaCl); also LB pH 8.0, LB with 200 or 250 mM NaCl, varied arabinose, PapEntd co-expressed

binding [1]: binds
B1: sensor domain of CpxA (CpxA-SD), BACTH hybrid (domain or fragment, UniProt P0AE82 28-164)
chain: T1 sequence

binding [2]: binds
B2: CpxPA108V (protein, UniProt P0AE85 22-166)
chain: AEVGSGDNWHPGEELTQRSTQSHMFDGISLTEHQRQQMRDLMQQARHEQPPVNVSELETMHRLVTAENFDENAVRAQAEKMANEQIVRQVEMAKVRNQMYRLLTPEQQAVLNEKHQQRMEQLRDVTQWQKSSSLKLLSSSNSRSQ

binding [1]: binds
binding [3]: binds
B3: signal peptide-free CpxP, BACTH hybrid (protein, UniProt P0AE85 21-166)
chain: AAEVGSGDNWHPGEELTQRSTQSHMFDGISLTEHQRQQMRDLMQQARHEQPPVNVSELETMHRLVTAENFDENAVRAQAEKMANEQIARQVEMAKVRNQMYRLLTPEQQAVLNEKHQQRMEQLRDVTQWQKSSSLKLLSSSNSRSQ

binding [5]: binds
B4: endogenous CpxR response regulator (protein, UniProt P0AE88 1-232)
chain: MNKILLVDDDRELTSLLKELLEMEGFNVIVAHDGEQALDLLDDSIDLLLLDVMMPKKNGIDTLKALRQTHQTPVIMLTARGSELDRVLGLELGADDYLPKPFNDRELVARIRAILRRSHWSEQQQNNDNGSPTLEVDALVLNPGRQEASFDGQTLELTGTEFTLLYLLAQHLGQVVSREHLSQEVLGKRLTPFDRAIDMHISNLRRKLPDRKDGHPWFKTLRGRGYLMVSAS
binding [4]: no binding (condition: without formaldehyde treatment)
